PMC5540273 (PLoS ONE, 2017)
For some assays here: What follows is the remainder of the data, with few or none of the strong results. Only a part is listed here, and it is no random draw.

system: CDKL5; conditions: concentration: 1 μM,replicates: in singlicate; n = 1
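Note: KINOMEscan kinase panel screen.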

| Compound | %Inh |
| --- | --- |
| O=C1NC(=O)C(c2ccc(Cl)cc2)=C1Nc1cccc(C(=O)O)c1 [SB-360737] | 0% |
| O=C1NC(=O)C(c2ccccc2Cl)=C1Nc1cccc(C(=O)O)c1 [SB-390526] | 0% |
| O=C1NC(=O)C(c2ccc(Cl)cc2)=C1Nc1ccc(O)c(Cl)c1 [SB-405367] | 5% |
| O=C1NC(=O)C(c2ccc(Cl)cc2)=C1Nc1cccc(O)c1 [SB-333613] | 4% |
| O=C1NC(=O)C(c2ccccc2)=C1Nc1cc(Cl)c(O)c(Cl)c1 [SB-390530] | 0% |
| Cc1ccc(C)c(Oc2nccc(-c3c(-c4ccc(F)cc4)ncn3C3CCNCC3)n2)c1.O=C(O)C(F)(F)F.O=C(O)C(F)(F)F.O=C(O)C(F)(F)F [SB-284852] | 0% |
| Cc1cc(C)cc(Oc2nccc(-c3c(-c4ccc(F)cc4)ncn3C3CCNCC3)n2)c1.O=C(O)C(F)(F)F.O=C(O)C(F)(F)F.O=C(O)C(F)(F)F [SB-284851] | 0% |
| O=C1NC(=O)C(c2ccccc2)=C1Nc1ccc(Cl)c(C(=O)O)c1 [SB-390532] | 0% |
| O=C1NC(=O)C(c2ccccc2Cl)=C1Nc1ccccc1 [SB-376715] | 0% |
| O=C(O)c1ccc(-c2nc(-c3ccc(F)cc3)c(-c3ccncc3)[nH]2)cc1 [SB-202620] | 0% |
| COc1cccc(C2=C(Nc3ccc(SC)cc3)C(=O)NC2=O)c1 [SB-331032] | 20% |
| COc1ccc(C2=C(Nc3cccc(Cl)c3)C(=O)NC2=O)cc1 [SB-326892] | 3% |
| CSc1ccc(NC2=C(c3cccc(Cl)c3)C(=O)NC2=O)cc1 [SB-341528] | 0% |
| O=C1NC(=O)C(c2ccc(Cl)cc2)=C1Nc1ccccc1 [SB-317661] | 7% |
| O=C1NC(=O)c2c1c(-c1ccccc1)cc1[nH]c3ccc(O)cc3c21 | 20% |
| CS(=O)(=O)c1ccccc1-c1nc(-c2ccc(F)cc2)c(-c2ccncc2)[nH]1 [SB-213663] | 6% |

system: CHEK1; conditions: concentration: 1 μM,replicates: in singlicate; n = 1

| Compound | %Inh |
| --- | --- |
| O=C1NC(=O)C(c2ccc(Cl)cc2)=C1Nc1cccc(C(=O)O)c1 [SB-360737] | 4% |
| O=C1NC(=O)C(c2ccccc2Cl)=C1Nc1cccc(C(=O)O)c1 [SB-390526] | 8% |
| O=C1NC(=O)C(c2ccc(Cl)cc2)=C1Nc1ccc(O)c(Cl)c1 [SB-405367] | 26% |
| O=C1NC(=O)C(c2ccc(Cl)cc2)=C1Nc1cccc(O)c1 [SB-333613] | 5% |
| O=C1NC(=O)C(c2ccccc2)=C1Nc1cc(Cl)c(O)c(Cl)c1 [SB-390530] | 0% |
| Cc1ccc(C)c(Oc2nccc(-c3c(-c4ccc(F)cc4)ncn3C3CCNCC3)n2)c1.O=C(O)C(F)(F)F.O=C(O)C(F)(F)F.O=C(O)C(F)(F)F [SB-284852] | 0% |
| Cc1cc(C)cc(Oc2nccc(-c3c(-c4ccc(F)cc4)ncn3C3CCNCC3)n2)c1.O=C(O)C(F)(F)F.O=C(O)C(F)(F)F.O=C(O)C(F)(F)F [SB-284851] | 0% |
| O=C1NC(=O)C(c2ccccc2)=C1Nc1ccc(Cl)c(C(=O)O)c1 [SB-390532] | 0% |
| O=C1NC(=O)C(c2ccccc2Cl)=C1Nc1ccccc1 [SB-376715] | 0% |
| O=C(O)c1ccc(-c2nc(-c3ccc(F)cc3)c(-c3ccncc3)[nH]2)cc1 [SB-202620] | 17% |
| COc1cccc(C2=C(Nc3ccc(SC)cc3)C(=O)NC2=O)c1 [SB-331032] | 0% |
| COc1ccc(C2=C(Nc3cccc(Cl)c3)C(=O)NC2=O)cc1 [SB-326892] | 0% |
| CSc1ccc(NC2=C(c3cccc(Cl)c3)C(=O)NC2=O)cc1 [SB-341528] | 0% |
| O=C1NC(=O)C(c2ccc(Cl)cc2)=C1Nc1ccccc1 [SB-317661] | 0% |
| CS(=O)(=O)c1ccccc1-c1nc(-c2ccc(F)cc2)c(-c2ccncc2)[nH]1 [SB-213663] | 0% |

system: CHEK2; conditions: concentration: 1 μM,replicates: in singlicate; n = 1

| Compound | %Inh |
| --- | --- |
| O=C1NC(=O)C(c2ccc(Cl)cc2)=C1Nc1cccc(C(=O)O)c1 [SB-360737] | 0% |
| O=C1NC(=O)C(c2ccccc2Cl)=C1Nc1cccc(C(=O)O)c1 [SB-390526] | 27% |
| O=C1NC(=O)C(c2ccc(Cl)cc2)=C1Nc1ccc(O)c(Cl)c1 [SB-405367] | 1% |
| O=C1NC(=O)C(c2ccc(Cl)cc2)=C1Nc1cccc(O)c1 [SB-333613] | 0% |
| O=C1NC(=O)C(c2ccccc2)=C1Nc1cc(Cl)c(O)c(Cl)c1 [SB-390530] | 0% |
| Cc1ccc(C)c(Oc2nccc(-c3c(-c4ccc(F)cc4)ncn3C3CCNCC3)n2)c1.O=C(O)C(F)(F)F.O=C(O)C(F)(F)F.O=C(O)C(F)(F)F [SB-284852] | 0% |
| Cc1cc(C)cc(Oc2nccc(-c3c(-c4ccc(F)cc4)ncn3C3CCNCC3)n2)c1.O=C(O)C(F)(F)F.O=C(O)C(F)(F)F.O=C(O)C(F)(F)F [SB-284851] | 0% |
| O=C1NC(=O)C(c2ccccc2)=C1Nc1ccc(Cl)c(C(=O)O)c1 [SB-390532] | 0% |
| O=C1NC(=O)C(c2ccccc2Cl)=C1Nc1ccccc1 [SB-376715] | 4% |
| O=C(O)c1ccc(-c2nc(-c3ccc(F)cc3)c(-c3ccncc3)[nH]2)cc1 [SB-202620] | 9% |
| COc1cccc(C2=C(Nc3ccc(SC)cc3)C(=O)NC2=O)c1 [SB-331032] | 0% |
| COc1ccc(C2=C(Nc3cccc(Cl)c3)C(=O)NC2=O)cc1 [SB-326892] | 0% |
| CSc1ccc(NC2=C(c3cccc(Cl)c3)C(=O)NC2=O)cc1 [SB-341528] | 0% |
| O=C1NC(=O)C(c2ccc(Cl)cc2)=C1Nc1ccccc1 [SB-317661] | 0% |
| O=C1NC(=O)c2c1c(-c1ccccc1)cc1[nH]c3ccc(O)cc3c21 | 98.1% |
| CS(=O)(=O)c1ccccc1-c1nc(-c2ccc(F)cc2)c(-c2ccncc2)[nH]1 [SB-213663] | 100% |
